# From publication doi:10.1101/2021.12.21.473719 (bioRxiv, 2021)
# T1: POPDC1-Myc (Popeye domain-containing protein 1, Myc-tagged) (mouse, UniProt Q9ES83 1-358)
# T1 sequence (looked up): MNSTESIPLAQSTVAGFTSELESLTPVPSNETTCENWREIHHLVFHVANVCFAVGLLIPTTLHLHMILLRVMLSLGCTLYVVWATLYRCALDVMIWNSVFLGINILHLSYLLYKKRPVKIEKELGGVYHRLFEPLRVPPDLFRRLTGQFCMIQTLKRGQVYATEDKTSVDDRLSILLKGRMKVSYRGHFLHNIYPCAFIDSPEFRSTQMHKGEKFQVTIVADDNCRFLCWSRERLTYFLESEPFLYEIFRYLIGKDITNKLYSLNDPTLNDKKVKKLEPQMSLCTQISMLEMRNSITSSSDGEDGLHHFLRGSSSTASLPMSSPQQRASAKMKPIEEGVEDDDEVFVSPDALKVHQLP
# B1: AC8 (adenylyl cyclase type 8), non-tagged (enzyme)
# chain: MELSDVRCLTGSEELYTIHPTPPAGDGRSASRPQRLLWQTAVRHITEQRFIHGHRGGSGSGSGGSGKASDPAGGGPNHHAPQLSGDSALPLYSLGPGERAHSTCGTKVFPERSGSGSASGSGGGGDLGFLHLDCAPSNSDFFLNGGYSYRGVIFPTLRNSFKSRDLERLYQRYFLGQRRKSEVVMNVLDVLTKLTLLVLHLSLASAPMDPLKGILLGFFTGIEVVICALVVVRKDTTSHTYLQYSGVVTWVAMTTQILAAGLGYGLLGDGIGYVLFTLFATYSMLPLPLTWAILAGLGTSLLQVILQVVIPRLAVISINQVVAQAVLFMCMNTAGIFISYLSDRAQRQAFLETRRCVEARLRLETENQRQERLVLSVLPRFVVLEMINDMTNVEDEHLQHQFHRIYIHRYENVSILFADVKGFTNLSTTLSAQELVRMLNELFARFDRLAHEHHCLRIKILGDCYYCVSGLPEPRQDHAHCCVEMGLSMIKTIRYVRSRTKHDVDMRIGIHSGSVLCGVLGLRKWQFDVWSWDVDIANKLESGGIPGRIHISKATLDCLNGDYNVEEGHGKERNEFLRKHNIETYLIKQPEDSLLSLPEDIVKESVSSSDRRNSGATFTEGSWSPELPFDNIVGKQNTLAALTRNSINLLPNHLAQALHVQSGPEEINKRIEHTIDLRSGDKLRREHIKPFSLMFKDSSLEHKYSQMRDEVFKSNLVCAFIVLLFITAIQSLLPSSRVMPMTIQFSILIMLHSALVLITTAEDYKCLPLILRKTCCWINETYLARNVIIFASILINFLGAILNILWCDFDKSIPLKNLTFNSSAVFTDICSYPEYFVFTGVLAMVTCAVFLRLNSVLKLAVLLIMIAIYALLTETVYAGLFLRYDNLNHSGEDFLGTKEVSLLLMAMFLLAVFYHGQQLEYTARLDFLWRVQAKEEINEMKELREHNENMLRNILPSHVARHFLEKDRDNEELYSQSYDAVGVMFASIPGFADFYSQTEMNNQGVECLRLLNEIIADFDELLGEDRFQDIEKIKTIGSTYMAVSGLSPEKQQCEDKWGHLCALADFSLALTESIQEINKHSFNNFELRIGISHGSVVAGVIGAKKPQYDIWGKTVNLASRMDSTGVSGRIQVPEETYLILKDQGFAFDYRGEIYVKGISEQEGKIKTYFLLGRVQPNPFILPPRRLPGQYSLA[about 20 residues skipped]GHYNRRTLLSPSGTEPGAQAEGTDKSDLP
# Biological target: T1, POPDC1-Myc (Popeye domain-containing …)
# Test: co-IP
binder,measurement,value
B1,fold Ca2+/calmodulin-stimulated AC activity over IgG controls,1.8 fold
